What all share (assay): cell_activity
Data set [1] relates to GFP TALEN left (artificial). Particulars: gene addition (dNGFR donor) in mouse primary fibroblasts, as pair, 18 bp spacer.
The test system of data set [2] is GFP TALEN right (artificial). The settings on record: gene addition (dNGFR donor) in mouse primary fibroblasts, as pair, 18 bp spacer.
For data set [3], the target named is beta-globin TALEN left (artificial) (UniProt Q56830). The settings on record: Cel-I, alleles mutated in HEK-293T; as pair.
The target in data set [4] is beta-globin TALEN right (artificial) (UniProt Q56830). Particulars: Cel-I, alleles mutated in HEK-293T; as pair.
Data set [5] addresses gamma-globin TALEN left (artificial) (UniProt Q56830). The settings on record: Cel-I, target sites mutated; as pair.
Data set [6] relates to gamma-globin TALEN right (artificial). Particulars: Cel-I, target sites mutated; as pair.

For “TGCCCGAAGGCTACGT (double strand) [GFP TALEN left half-site (sense)]”, the activity in data set [1] came out at 1.9%.

“TTGCCGTCGTCCTTGAAG (double strand) [GFP TALEN right half-site (antisense)]” returned an activity in data set [2] of 1.9%.

For the substance “human beta-globin locus, just 3' of sickle mutation”, the activity in data set [3] and in data set [4] was 27% in each case.

With human gamma-globin locus, the activity in data set [5] and in data set [6] was 44% in each case.
